Results on 69 compounds are retold here after the supplement of paper PMC5919970.

Where a name gives a salt, the structure may show the parent alone. Whole data set: some 2,000 compounds, median “fractional viability relative to vehicle” near 0.92, cut for the lowest 2% near 0.11. This is one part of the list.

This test concerns TYKNU. The experiment in a line: fractional viability relative to vehicle; TYKNU is a high-grade serous ovarian cancer line; higher = less growth inhibition. To be noted: 72 h, genotype: OPA1 knockout (sgOPA1 #2). Summed up:
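TYKNU control cells or lentiCRISPRv2 knockout derivatives were seeded at 500 cells per well into drug-stamped 384-well plates holding a ~2100-compound library at 2 or 10 μM, in duplicate. Cells were grown at 37 °C in 5% CO2 in RPMI 1640 with 10% FBS, and drug treatment lasted 72 h. Viability was read by Cell Titer Glo luminescence. Duplicate treatment wells were averaged and normalised to duplicate control wells from the same plate position.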

Take `O=C(NC1CCN(CCCCC2(C(=O)NCC(F)(F)F)c3ccccc3-c3ccccc32)CC1)c1ccccc1-c1ccc(C(F)(F)F)cc1` [Lomitapide Mesylate]: the fractional viability reads like this: (2uM) 0.887; (10uM) 0.0779.
Taken in the same sequence, the figures for `COc1ccc(C(=O)CC2(O)C(=O)Nc3c(Cl)ccc(Cl)c32)cc1` (stereo not drawn) were 0.463 and 0.377.
Taken in the same sequence, the figures for `CC(C)(C)Cn1c(N)nc2ccc(-c3[nH]c(C(C)(C)C)nc3-c3ccc(F)cc3)nc21` were 1.04 and 0.96.
Taken in the same sequence, the figures for `CCCN[C@H]1CCc2nc(N)sc2C1` [Pramipexole] were 0.84 and 0.933.
Take `C/C=C1/[C@H](O[C@@H]2O[C@H](CO)[C@@H](O)[C@H](O)[C@H]2O)OC=C(C(=O)OC)[C@H]1CC(=O)OCCc1ccc(O)c(O)c1` [Oleuropein]: the fractional viability worked out at 0.903 (2uM) and 0.896 (10uM).
In the same order, the values of `Cc1cc(=O)oc2cc(O)ccc12` [4-Methylumbelliferone (4-MU)] are 1.09 and 0.917.
In the same order, the values of `COc1cccc(-c2ccc(NC(=O)C3=C(C(=O)O)CCC3)c(F)c2)c1` [Vidofludimus] are 0.835 and 0.543.
As to `Clc1cccc(-c2nnnn2Cc2cccnc2)c1Cl`, the fractional viability reads like this: (2uM) 0.9; (10uM) 0.792.
Taken in the same sequence, the figures for `Nc1ncn([C@@H]2O[C@H](CO)[C@@H](O)[C@H]2O)c(=O)n1` [Azacitidine] were 1.19 and 1.11.
For `CC(COc1ccccc1)N(CCCl)Cc1ccccc1` (stereo not drawn) [Phenoxybenzamine HCl], the fractional viability worked out at 0.639 (2uM) and 0.481 (10uM).
Taken in the same sequence, the figures for `CCCNC(C)C(=O)Nc1ccccc1C` (stereo not drawn) [Prilocaine] were 1.14 and 0.966.
Consider `CC(=O)Nc1cccc2c1c(Sc1ccc(Cl)cc1)c(C)n2CC(=O)O`, for which the fractional viability is 0.976 (2uM) and 0.913 (10uM).
Taken in the same sequence, the figures for `O=C(Nc1ccc(OC(F)(F)F)cc1)c1sccc1NCc1ccnc2ccccc12` were 1.18 and 0.525.
In the same order, the values of `COc1cc(/C=C/C(=O)N2CCN(CC(=O)N3CCCC3)CC2)cc(OC)c1OC` [Cinepazide maleate] are 0.929 and 0.991.
As for `Cc1c(-c2ccnn2C)cc(C(=O)NCc2ccc(S(C)(=O)=O)cn2)c(=O)n1-c1cccc(C(F)(F)F)c1` [Alvelestat (AZD9668)], the fractional viability stood at 0.916 (2uM) and 0.938 (10uM).
`CC(C)(C)c1[nH]cnc1/C=c1\[nH]c(=O)/c(=C/c2ccccc2)[nH]c1=O` [Plinabulin (NPI-2358)]: the fractional viability runs as follows: (2uM) 0.432; (10uM) 0.441.
Taken in the same sequence, the figures for `Cn1c(=O)cc(N2CCC[C@@H](N)C2)n(Cc2cc(F)ccc2C#N)c1=O` [Trelagliptin] were 1.12 and 0.9.
Consider `C=C1c2cccc(O)c2C(=O)C2=C(O)[C@]3(O)C(=O)C(C(N)=O)=C(O)[C@@H](N(C)C)[C@@H]3[C@@H](O)[C@H]12` [Methacycline HCl], for which the fractional viability by setting is: (2uM) 1.53; (10uM) 1.18.
As for `N#Cc1ccc(-c2c(-c3ncn[nH]3)sc(N3CCOCC3)c2C#N)c(F)c1`, the fractional viability reads like this: (2uM) 0.737; (10uM) 0.572.
Taken in the same sequence, the figures for `OC[C@H]1O[C@@H](Oc2ccc(O)cc2)[C@H](O)[C@@H](O)[C@@H]1O` [Arbutin] were 1.2 and 1.03.
In the case of `O=C(c1ccc(C(=O)N2CCC(N3CCCC3)CC2)c(Nc2ccccc2)c1)N1CCC(N2CCCC2)CC1`, the fractional viability reads like this: (2uM) 0.924; (10uM) 0.857.
In the same order, the values of `CCCC(=O)O[C@]1(C(=O)COC(C)=O)CC[C@H]2[C@@H]3C[C@H](F)C4=CC(=O)C=C[C@]4(C)[C@@]3(F)[C@@H](O)C[C@@]21C` [Difluprednate] are 1.03 and 0.934.
Taken in the same sequence, the figures for `COc1ccc(NS(=O)(=O)c2ccc(N)cc2)nn1` [Sulfamethoxypyridazine] were 0.99 and 0.859.
Taken in the same sequence, the figures for `Nc1ccc(C(=O)NCC(=O)O)cc1` [4-Aminohippuric Acid] were 1.01 and 0.916.
In the case of `N=C(N)NC(=N)N1CCOCC1` [Moroxydine HCl], the fractional viability by setting is: (2uM) 0.919; (10uM) 0.883.
As to `CC(=O)Oc1cccc2c1C(=O)c1c(OC(C)=O)cc(C(=O)O)cc1C2=O` [Diacerein], the fractional viability was found to be 0.946 (2uM) and 0.847 (10uM).
As to `CCN(CC)Cc1ccc2cc(COC(=O)Nc3ccc(C(=O)NO)cc3)ccc2c1` [Givinostat (ITF2357)], the fractional viability (2uM) came out at 0.205 and the fractional viability (10uM) was determined as 0.14.
`CC(C)(C#N)c1ccc(N2C(=O)OCc3cnc4ccc(-c5cnc6ccccc6c5)cc4c32)cc1`: the fractional viability runs as follows: (2uM) 0.833; (10uM) 0.566.
In the same order, the values of `CC(C)C[C@@H](C=O)NC(=O)[C@H](CC(C)C)NC(=O)[C@H](CC(C)C)NC(=O)OCc1ccccc1` are 0.236 and 0.144.
Taken in the same sequence, the figures for `COC1=CC(c2cc3ccccc3[nH]2)=N/C1=C\c1[nH]c(C)cc1C` [Obatoclax Mesylate (GX15-070)] were 0.431 and 0.283.
Taken in the same sequence, the figures for `CC1=CC(=O)NS(=O)(=O)O1` [Acesulfame Potassium] were 1.21 and 1.02.
In the case of `CN(C)CCC[C@@]1(c2ccc(F)cc2)OCc2cc(C#N)ccc21` [Escitalopram Oxalate], the fractional viability is, setting by setting: (2uM) 0.99; (10uM) 0.875.
Taken in the same sequence, the figures for `CCCC(=O)Nc1ncnc2c1ncn2[C@@H]1O[C@@H]2COP(=O)(O)O[C@H]2[C@H]1OC(=O)CCC` [Dibutyryl-cAMP (Bucladesine)] were 0.798 and 0.753.
In the same order, the values of `CN1CCCC(n2nc(Cc3ccc(Cl)cc3)c3ccccc3c2=O)CC1` (stereo not drawn) [Azelastine HCl] are 1.12 and 0.802.
Taken in the same sequence, the figures for `CC(=O)OCOC(=O)CN(CC(=O)OCOC(C)=O)c1ccccc1OCCOc1ccccc1N(CC(=O)OCOC(C)=O)CC(=O)OCOC(C)=O` were 0.619 and 0.118.
Regarding `CC(C)C[C@H](NC(=O)[C@H](CCc1ccccc1)NC(=O)CN1CCOCC1)C(=O)N[C@@H](Cc1ccccc1)C(=O)N[C@@H](CC(C)C)C(=O)[C@@]1(C)CO1` [Carfilzomib (PR-171)], the fractional viability by setting is: (2uM) 0.0962; (10uM) 0.146.
Taken in the same sequence, the figures for `O=S(=O)(c1ccccc1)c1cnc2c(N3CCNCC3)cccc2c1` were 0.995 and 0.838.
Taken in the same sequence, the figures for `NC(=O)N/N=C/c1ccc([N+](=O)[O-])o1` [Nitrofural] were 1.55 and 1.47.
For `O=C(O[C@H]1CN2CCC1CC2)N1CCc2ccccc2[C@@H]1c1ccccc1` [Solifenacin succinate], the fractional viability (2uM) was 0.873 and the fractional viability (10uM) was determined as 0.893.
In the same order, the values of `CN(NC(=O)CC(=O)NN(C)C(=S)c1ccccc1)C(=S)c1ccccc1` [Elesclomol (STA-4783)] are 0.0864 and 0.107.
Taken in the same sequence, the figures for `CO[C@@H]1[C@@H](OC(N)=O)[C@@H](O)[C@H](Oc2ccc3c(O)c(NC(=O)c4ccc(O)c(CC=C(C)C)c4)c(=O)oc3c2C)OC1(C)C` [Novobiocin Sodium] were 0.928 and 0.985.
In the case of `NC(=O)c1cnc2[nH]ccc2c1N[C@@H]1[C@@H]2CC3C[C@H]1C[C@@](O)(C3)C2`, the fractional viability worked out at 0.989 (2uM) and 1 (10uM).
As for `CCN1CCN(C(=O)N[C@@H](C(=O)N[C@@H]2C(=O)N3[C@@H]2SC(C)(C)[C@@H]3C(=O)O)c2ccccc2)C(=O)C1=O` [Piperacillin Sodium], the fractional viability came out at 0.781 (2uM) and 0.962 (10uM).
In the same order, the values of `CCN(Cc1ccncc1)C(=O)C(CO)c1ccccc1` (stereo not drawn) [Tropicamide] are 1.01 and 0.939.
Taken in the same sequence, the figures for `Cc1ncc([N+](=O)[O-])n1CCO` [Metronidazole] were 1.25 and 1.88.
Taken in the same sequence, the figures for `O=C(Cc1cccc(OC(F)(F)F)c1)Nc1ccc(CCCCc2nnc(NC(=O)Cc3ccccn3)s2)nn1` were 0.25 and 0.2.
Regarding `CCN(CC)CC#CCOC(=O)C(O)(c1ccccc1)C1CCCCC1` (stereo not drawn) [Oxybutynin chloride], the fractional viability turned out to be 1.02 (2uM) and 0.969 (10uM).
For `CCN(CC)CC#CCOC(=O)C(O)(c1ccccc1)C1CCCCC1` (stereo not drawn) [Oxybutynin], the fractional viability is, setting by setting: (2uM) 0.902; (10uM) 0.775.
Taken in the same sequence, the figures for `CC(=O)O/N=C1\C(=O)N(Cc2cc(Cl)ccc2Cl)c2ccc(Cl)cc21` were 1.06 and 0.985.
Taken in the same sequence, the figures for `C=CC[C@@H]1/C=C(\C)C[C@H](C)C[C@H](OC)[C@H]2O[C@@](O)(C(=O)C(=O)N3CCCC[C@H]3C(=O)O[C@H](/C(C)=C/[C@@H]3CC[C@@H](O)[C@H](OC)C3)[C@H](C)[C@@H](O)CC1=O)[C@H](C)C[C@@H]2OC` [Tacrolimus (FK506)] were 0.935 and 0.747.
In the same order, the values of `O=C(N/N=C/c1ccc(O)c(O)c1)c1cc2ccccc2cc1O` [Dynasore] are 0.819 and 0.86.
With `Cc1ccc(C(=O)c2cc(O)c(O)c([N+](=O)[O-])c2)cc1` [Tolcapone], the fractional viability (2uM) was determined as 0.826 and the fractional viability (10uM) stood at 0.845.
Turning to `O=C([O-])c1ccccc1O.[Na+]` [Sodium salicylate], the fractional viability came to 0.951 (2uM) and 0.945 (10uM).
Taken in the same sequence, the figures for `COc1ccc2[nH]cc(CCNC(C)=O)c2c1` [Melatonin] were 1.01 and 1.12.
In the same order, the values of `Cc1cc([N+](=O)[O-])ccc1NS(=O)(=O)c1cc(Cl)ccc1Cl` are 0.656 and 0.476.
In the same order, the values of `COc1ccc(COc2ccc(Cc3cnc(N)nc3N)cc2OC)cc1` are 0.81 and 0.833.
On to `O=C(O)CCNc1cc(N2CCc3ccccc3CC2)nc(-c2ccccn2)n1`, for which the fractional viability amounted to 0.743 (2uM) and 0.872 (10uM).
Taken in the same sequence, the figures for `Cc1ccc(S(=O)(=O)NC(=O)NN2CC3CCCC3C2)cc1` (stereo not drawn) [Gliclazide] were 1.04 and 1.08.
Taken in the same sequence, the figures for `O=c1c(O)c(-c2cc(O)c(O)c(O)c2)oc2cc(O)cc(O)c12` [Myricetin] were 0.937 and 0.976.
Taken in the same sequence, the figures for `Cc1cc(Cn2cnc3c2CC(C(=O)O)N(C(=O)C(c2ccccc2)c2ccccc2)C3)ccc1N(C)C` (stereo not drawn) were 0.986 and 0.95.
In the case of `O=C(Nc1cc(C(F)(F)F)ccc1N1CCCCC1)c1ccncc1`, the fractional viability was found to be 1.1 (2uM) and 1.13 (10uM).
In the same order, the values of `Cc1ccc(NC(=O)c2ccc(CN3CCN(C)CC3)cc2)cc1Nc1nc(-c2cccnc2)cs1` [Masitinib (AB1010)] are 1.5 and 1.25.
In the same order, the values of `COc1nc(C)nc(Cl)c1NC1=NCCN1` [Moxonidine] are 1.04 and 0.918.
In the same order, the values of `CCCC[C@@H](C=O)NC(=O)[C@H](CC(C)C)NC(=O)OCc1ccccc1` [Calpeptin] are 0.706 and 0.926.
As for `CCO[C@@H]1OC(=O)C[C@@H]1NC(=O)[C@@H]1CCCN1C(=O)[C@@H](NC(=O)c1ccc(N)c(Cl)c1)C(C)(C)C`, the fractional viability (2uM) was determined as 0.969 and the fractional viability (10uM) was determined as 0.919.
In the same order, the values of `O=C(CCCN1CC=C(n2c(=O)[nH]c3ccccc32)CC1)c1ccc(F)cc1` [Droperidol] are 1.03 and 0.969.
Taken in the same sequence, the figures for `COc1ccc2cc(CCC(C)=O)ccc2c1` [Nabumetone] were 0.955 and 0.879.
Taken in the same sequence, the figures for `COc1ccc(-c2oc3c(CC=C(C)C)c(O[C@@H]4O[C@H](CO)[C@@H](O)[C@H](O)[C@H]4O)cc(O)c3c(=O)c2O[C@@H]2O[C@@H](C)[C@H](O)[C@@H](O)[C@H]2O)cc1` [Icariin] were 0.965 and 0.99.
Take `CCn1cc(C(=O)O)c(=O)c2ccc(C)nc21` [Nalidixic acid]: the fractional viability (2uM) stood at 1.05 and the fractional viability (10uM) amounted to 0.801.
